PubChem BioAssay AID588855 (National Center for Advancing Translational Sciences (NCATS), 2011)
Among all 410,000 compounds or so, about 5,000 (1.2%) were called active. The inconclusive results got no clear call from the source; some entries with a clear call stand among them for comparison. Calls come from the whole dose curve; as a rule, active = well fitted inhibition curve with a large enough effect; inconclusive = small, poorly fitted or top-dose-only effect; inactive = no such curve, though single readings can be large or run the other way. A potency beside an inconclusive call is a rough fit, not a confirmed value.

Assay: qHTS for Inhibitors of TGF-b; note: nearly all actives have a fitted effect of over 65% in size
Conditions: HepG2 CAGA-GFP TGF-b/SMAD3 reporter, GFP fluorescence, 18 h, TGF-beta stimulated, 500 pg/mL final; series mostly up to 46.1 µM
Outline: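 Smad-responsive CAGA-GFP expression was quantified in HEPG2 cells exposed to compounds and 500 pg/mL final TGF-beta for 18 h at 37 degrees C; unstimulated wells defined full inhibition.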
Potency is the fitted concentration of half-maximal effect; tags give direction and shape of the fitted curve.

SMILES | Potency
CCN(CCC#N)c1ccc(/C=C/c2ccnc3ccccc23)cc1 | inconclusive: 10 µM [inhibitor, partial curve, poor fit]
Cc1nc(SCC(=O)NCCc2ccccc2)nc(C)c1C | inconclusive: 35.5 µM [inhibitor, single point]
O=C(O)CC1CCC(=C(Cl)Cl)C1 (centres undefined) | inconclusive: 17.8 µM [inhibitor, single point]
COC(=O)c1ccc(CN2C(=O)c3ccccc3S2(=O)=O)cc1 | inconclusive: 11.2 µM [inhibitor, partial curve]
COc1ccc(S(=O)(=O)Nc2cc3c(C(C)=O)c(C)oc3c3ccccc23)cc1 | inconclusive: 1 µM [inhibitor, full curve]
CC(C)=CCc1c(O)c(CC=C(C)C)c2occ(-c3ccc(O)cc3)c(=O)c2c1O | inconclusive: 25.1 µM [inhibitor, single point]
Cc1cccc(CN2CCN(C(=O)CCl)CC2)c1 | inconclusive: 35.5 µM [inhibitor, single point]
COc1cccc(/C=N/NC(=O)CSc2cccc3cccnc23)c1 | inconclusive: 35.5 µM [inhibitor, single point]
O=C(Cc1ccc(Br)cc1)NCc1ccccc1 | inconclusive: 12.6 µM [inhibitor, single point]
CCOC(=O)c1c(C)nc(C)c(C(=O)OCC)c1-c1ccc(Br)cc1 | inconclusive: 35.5 µM [inhibitor, single point]
CCCCCCN1C[C@H](n2cc(C3CC3)nn2)[C@@H](O)C[C@@H]1c1ccc(Cl)cc1 | inconclusive: 35.5 µM [inhibitor, single point]
Cn1nc(-c2ccc(OCC(=O)Nc3ccc(Cl)cc3)cc2)c2ccccc2c1=O | inconclusive: 22.4 µM [inhibitor, single point]
CCN1C(=O)N(c2ccc(C(C)=O)cc2)S(=O)(=O)c2ccccc21 | inconclusive: 35.5 µM [inhibitor, single point]
Cc1cccc(NC(=O)CSc2nnc(CNC(=O)c3ccco3)n2C)c1C | inactive
Cc1ccc(CN2C(=O)C(=O)c3cc(Br)cc(C)c32)cc1 | inconclusive: 7.94 µM [inhibitor, partial curve, poor fit]
Cc1cc(Br)ccc1NC(=O)CN(C)C(=O)CNC(=O)Cc1ccccc1 | inactive
Cc1ccccc1Nc1c(-c2cccnc2)nc2cccc(C)n12 | inconclusive: 15.8 µM [inhibitor, single point]
COc1ccc(/C=C/C(=O)OCC(=O)NCCC2=CCCCC2)cc1S(=O)(=O)N1CCOCC1 | inconclusive: 35.5 µM [inhibitor, single point]
CCCc1cc(=O)[nH]c(Nc2ccc(OC)c(Cl)c2)n1 | inconclusive: 3.16 µM [inhibitor, single point]
CCC(C(=O)Nc1ccccc1)n1nc(-c2cc(C)ccc2C)ccc1=O (centres undefined) | inconclusive: 1.41 µM [inhibitor, full curve, poor fit]
c1ccc(C[n+]2cccc(-c3ccccc3)c2)cc1 | inactive
COc1ccc(-c2nc(CCNC(=O)c3c(F)cccc3Cl)cs2)cc1 | inconclusive: 7.94 µM [inhibitor, partial curve, poor fit]

SMILES | Potency
Cc1ccccc1N=C(c1ccccc1)C1C(=O)c2ccccc2C1=O | inconclusive: 10 µM [inhibitor, partial curve, poor fit]
COC(=O)c1c(-c2cc(C)ccc2C)csc1NC(=O)C1CC=CCC1C(=O)O (centres undefined) | inactive
O=C(C[n+]1ccccc1Br)c1ccc(-c2ccccc2)cc1 | inconclusive: 35.5 µM [inhibitor, single point]
CC1CCN(C(=O)Cn2cc(SCC(=O)Nc3ccccc3C(F)(F)F)c3ccccc32)CC1 | inconclusive: 35.5 µM [inhibitor, single point]
O=C(N/N=C/c1ccc2c(c1)OCO2)c1cccc2ccccc12 | inactive
COc1cc(C(=O)Nc2cccc(OCc3cc(=O)n4cc(C)sc4n3)c2)cc(OC)c1OC | inconclusive: 2.51 µM [inhibitor, full curve, poor fit]
COc1ccccc1NS(=O)(=O)c1ccc(C(=O)NCc2ccco2)cc1 | inactive
O=C(Nc1ccc(Cl)c(Cl)c1)c1ccc(Cn2cc(Cl)cn2)cc1 | inconclusive: 20 µM [inhibitor, single point]
COc1cc2c(cc1OC)C(COc1ccc(F)cc1)NCC2 (centres undefined) | inconclusive: 35.5 µM [inhibitor, single point]
CCn1c2ccccc2c2cc(NC(=O)c3cc(C)on3)ccc21 | inactive
COc1ccc(-c2nc3ccccc3n2Cc2ccc(C)cc2)cc1 | inconclusive: 35.5 µM [inhibitor, single point]
Clc1ccc(N=NN2CCOCC2)cc1 | inactive
Cn1nc(C(=O)NNC(=O)c2cccc(Cl)c2)ccc1=O | inactive
COc1ccc(-c2cc(-c3c(O)c(OC)c4occc4c3OC)[nH]n2)cc1OC | active: 7.94 µM
COc1cccc(NC(=O)CN(C)C(=O)CN2C(=O)NC(C)(c3ccc(C)cc3)C2=O)c1 (centres undefined) | inconclusive: 10 µM [inhibitor, partial curve, poor fit]
O=C1CSC(=Nc2cccc(Cl)c2Cl)N1 | inactive
CCSc1nc2c([nH]c3ccccc32)c(=O)n1-c1cccc(OC)c1 | inconclusive: 31.6 µM [inhibitor, single point]
COc1ccc(CNS(=O)(=O)c2ccc(-c3ccc(=O)[nH]n3)s2)cc1OC | inactive
CCOc1c(C)cnc2c1c(=O)n(Cc1ccccc1Cl)c(=O)n2C | inactive
COc1ccc(-c2cc(C(F)(F)F)nc(SCCC(=O)Nc3ccc(O)cc3)n2)cc1 | inconclusive: 35.5 µM [inhibitor, single point]
CN(C)CCCN(C(=O)c1ccc(C(=O)c2ccccc2)cc1)c1nc2ccc(F)cc2s1 | inconclusive: 22.4 µM [inhibitor, single point]
CCn1c2ccccc2c2nnc(N3CCN(c4ccc(OC)cc4)CC3)nc21 | inactive
